One test deals with HSkMC. Description: cytotoxicity call (relative viability < 0.9). To be noted: 10 µM.
The subject of a further test is HepG2. Description: cytotoxicity call (relative viability < 0.9). To be noted: 10 µM.
For the next test, the system named is S. aureus RN4220. Description: growth inhibition call (relative growth <= 0.2). To be noted: 50 µM.

The list shows a part of the results.

For `C[C@H](CO)N1C[C@H](C)[C@H](CN(C)Cc2cccc(F)c2)OCc2ccccc2-c2c(n(C)c3ccccc23)C1=O`, in the test on HSkMC, the cytotoxicity call was “inactive”. In addition, in the test with HepG2, the cytotoxicity call is “active”. Moreover, the growth inhibition call in the test on S. aureus RN4220 was “inactive”.
As for `C[C@@H]1CCCCO[C@H](CN(C)C(=O)Nc2ccc(F)cc2)[C@H](C)CN([C@H](C)CO)C(=O)c2cc(NS(=O)(=O)c3ccc(F)cc3)ccc2O1`, the cytotoxicity call in the test on HSkMC and with HepG2 was “inactive” in each case. For the same compound, the growth inhibition call in the test on S. aureus RN4220 is “inactive”.
Regarding `Cc1ccc(S(=O)(=O)N2C[C@@H](O)COC[C@H]3O[C@H](CC(=O)NCc4ccc(C(F)(F)F)cc4)CC[C@@H]32)cc1`, the cytotoxicity call with HSkMC and in the test on HepG2 was “inactive” each time. Further, in the test on S. aureus RN4220, the growth inhibition call is “inactive”.
For the compound `Cc1ccccc1S(=O)(=O)N1C[C@H](O)COC[C@@H]2O[C@@H](CC(=O)N3CCOCC3)CC[C@H]21`, the cytotoxicity call with HSkMC and in the test on HepG2 was “inactive” in each case. Further, in the test on S. aureus RN4220, the growth inhibition call was “inactive”.
Consider `C[C@@H]1CN([C@@H](C)CO)C(=O)c2cc(NS(=O)(=O)c3cccs3)ccc2O[C@@H](C)CCCCO[C@H]1CN(C)Cc1ccc(C(=O)O)cc1`, for which the cytotoxicity call in the test with HSkMC and in the test on HepG2 was “inactive” throughout. Moreover, the growth inhibition call with S. aureus RN4220 is “inactive”.
Consider `C[C@@H]1CN([C@H](C)CO)C(=O)c2cc(C3=CCCC3)cnc2O[C@H]1CN(C)C(=O)Nc1ccc(C(F)(F)F)cc1`, for which the cytotoxicity call with HSkMC and in the test on HepG2 was “inactive” each time. Moreover, the growth inhibition call with S. aureus RN4220 was “inactive”.
In the case of `Cc1cn([C@@H]2C[C@H](O)[C@@H](CO)O2)c(=O)[nH]c1=O`, the cytotoxicity call in the test on HSkMC and in the test on HepG2 was “inactive” each time. In the test with S. aureus RN4220, the growth inhibition call is “inactive”.
For the compound `C[C@H]1CCCCO[C@H](CN(C)C(=O)Nc2ccccc2)[C@@H](C)CN([C@@H](C)CO)C(=O)c2cc(NC(=O)Nc3ccc4c(c3)OCO4)ccc2O1`, the cytotoxicity call with HSkMC and with HepG2 was “inactive” each time. In addition, the growth inhibition call in the test on S. aureus RN4220 is “inactive”.
As for `C[C@@H]1CN([C@@H](C)CO)C(=O)c2cccc(NC(=O)c3nc4ccccc4s3)c2O[C@@H]1CN(C)Cc1ccc(-c2ccccc2)cc1`, the cytotoxicity call in the test with HSkMC and with HepG2 was “inactive” each time. For the same compound, the growth inhibition call in the test on S. aureus RN4220 is “inactive”.
In the case of `COc1cccc(-c2cn(CC[C@H]3CC[C@@H](NC(=O)CN(C)C)[C@@H](CO)O3)nn2)c1`, the cytotoxicity call in the test with HSkMC and with HepG2 was “inactive” in each case. Further, the growth inhibition call with S. aureus RN4220 is “inactive”.
As to `CC(=O)OC1CCC2(C)C(CCC3C2CC(=O)C2(C)C3CC3OC4(CCC(C)CO4)C(C)C32)C1` (configuration not stated), the cytotoxicity call in the test on HSkMC and in the test with HepG2 was “inactive” throughout. Besides, the growth inhibition call in the test on S. aureus RN4220 is “inactive”.
Turning to `C[C@@H]1CN([C@@H](C)CO)C(=O)Cc2cc(NC(=O)NC3CCCCC3)ccc2O[C@@H]1CN(C)Cc1ccc(Cl)c(Cl)c1`, the cytotoxicity call in the test on HSkMC is “inactive”. Besides, in the test on HepG2, the cytotoxicity call is “active”. For the same compound, in the test on S. aureus RN4220, the growth inhibition call was “inactive”.
For the compound `C[C@H]1CN([C@@H](C)CO)C(=O)c2cccc(NC(=O)CCCCCC(=O)Nc3ccccc3N)c2O[C@@H]1CN(C)S(C)(=O)=O`, the cytotoxicity call in the test on HSkMC and in the test on HepG2 was “inactive” each time. For the same compound, the growth inhibition call in the test on S. aureus RN4220 is “inactive”.
With `C[C@H]1CN([C@@H](C)CO)C(=O)Cc2cc(NC(=O)Cc3ccccc3)ccc2O[C@@H]1CN(C)S(=O)(=O)c1cccs1`, the cytotoxicity call in the test on HSkMC and in the test on HepG2 was “inactive” each time. Also, in the test on S. aureus RN4220, the growth inhibition call is “inactive”.
For `C[C@H](CO)N1C[C@H](C)[C@@H](CN(C)C(=O)C2CCCCC2)OCCCC[C@H](C)Oc2ccc(NC(=O)C3CCCCC3)cc2C1=O`, the cytotoxicity call with HSkMC and in the test on HepG2 was “inactive” throughout. Also, in the test with S. aureus RN4220, the growth inhibition call was “inactive”.
In the case of `COc1ccc(S(=O)(=O)N(C)C[C@@H]2Oc3ncc(-c4ccncc4)cc3C(=O)N([C@@H](C)CO)C[C@@H]2C)cc1`, the cytotoxicity call in the test with HSkMC and in the test with HepG2 was “inactive” throughout. The growth inhibition call in the test with S. aureus RN4220 was “inactive”.
For the compound `C[C@H]1CN([C@@H](C)CO)C(=O)c2cc(NC(=O)CCCCCC(=O)Nc3ccccc3N)ccc2O[C@@H]1CN(C)S(=O)(=O)c1cn(C)cn1`, the cytotoxicity call in the test on HSkMC and in the test with HepG2 was “inactive” in each case. Moreover, the growth inhibition call in the test with S. aureus RN4220 was “inactive”.
As to `COc1ccc(NC(=O)N(C)C[C@@H]2OCCCC[C@@H](C)Oc3ccc(NS(=O)(=O)c4ccc(Cl)cc4)cc3C(=O)N([C@H](C)CO)C[C@H]2C)cc1`, the cytotoxicity call in the test on HSkMC and in the test with HepG2 was “inactive” in each case. The growth inhibition call with S. aureus RN4220 is “inactive”.
For the compound `Cc1ccc(S(=O)(=O)N(C)C[C@H]2OCCCC[C@@H](C)Oc3ccc(NS(=O)(=O)c4ccc(Cl)cc4)cc3C(=O)N([C@@H](C)CO)C[C@H]2C)cc1`, the cytotoxicity call in the test on HSkMC and in the test on HepG2 was “inactive” each time. Besides, in the test on S. aureus RN4220, the growth inhibition call was “inactive”.
In the case of `CCS(=O)(=O)Nc1ccc2c(c1)C(=O)N(C)C[C@@H](OC)[C@H](C)CN(C(=O)c1ccc3c(c1)OCO3)[C@H](C)CO2`, the cytotoxicity call in the test on HSkMC (human skeletal muscle cells) and in the test with HepG2 was “inactive” in each case. In the test with S. aureus RN4220, the growth inhibition call is “inactive”.
Consider `O=C(C[C@@H]1C=C[C@H](NC(=O)c2cnccn2)[C@@H](CO)O1)NCc1ccccc1F`, for which the cytotoxicity call in the test with HSkMC and in the test with HepG2 was “inactive” each time. In addition, in the test with S. aureus RN4220, the growth inhibition call was “inactive”.
As to `C[C@H](CO)N1C[C@H](C)[C@@H](CN(C)C(=O)Nc2cccc3ccccc23)Oc2ccc(NS(=O)(=O)c3cccs3)cc2C1=O`, the cytotoxicity call in the test with HSkMC and in the test on HepG2 was “inactive” throughout. The growth inhibition call with S. aureus RN4220 is “inactive”.
Regarding `C[C@]1(C(=O)NCC(F)(F)F)c2ccccc2C(=O)N(Cc2cc(C(F)(F)F)cc(C(F)(F)F)c2)[C@H]1c1ccc(CO)cc1`, the cytotoxicity call in the test with HSkMC and in the test with HepG2 was “inactive” in each case. Further, the growth inhibition call in the test on S. aureus RN4220 is “inactive”.
Take `CC(=O)OC[C@H]1O[C@H](C/C=N/O[C@H](C)c2cn([C@@H]3COC[C@H]3O)nn2)C=C[C@@H]1OC(C)=O`: the cytotoxicity call with HSkMC and in the test on HepG2 was “inactive” each time. Also, the growth inhibition call with S. aureus RN4220 is “inactive”.

The values above are taken from the antibiotic and cytotoxicity screens of Wong et al. (2023).
